103 sequences from the supplement of paper PMC12067230 can be followed below.

This is a noisy data set.
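Note: [psi-pin-] Saccharomyces cerevisiae expressing SupN fusions, induced by 100 µM Cu2SO4, selected 7 d at 30 °C without adenine and uracil, scored by deep sequencing of output versus input.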

The first series in a line: amyloid nucleation score relative to library mode (yeast Sup35 reporter selection) (log enrichment difference); higher = more amyloid nucleation; sequences are the first 22 residues of the Bri2 peptide extended by up to 12 random residues. Conditions: random library (experiment): 1;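 active = nucleation score significantly above 0 at FDR 0.05; inactive = not significantly above 0 or absent from output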.
For the sequence EASNCFAIRHFENKFAVETLICRWGEGLLLVSDG, the amyloid nucleation score result is “inactive”.

Take EASNCFAIRHFENKFAVETLICRWGEVARLYFCW: the amyloid nucleation score result is “inactive”.

For EASNCFAIRHFENKFAVETLICRWGNSVSSGFTV, the amyloid nucleation score entry is “inactive”.

Consider EASNCFAIRHFENKFAVETLICRWLHHGQ, for which the amyloid nucleation score entry was “inactive”.

Turning to EASNCFAIRHFENKFAVETLICRWLMPTTGSLQR, the amyloid nucleation score entry was “inactive”.

For EASNCFAIRHFENKFAVETLICRWLVSSASSWLK, the amyloid nucleation score result was “inactive”.

Consider EASNCFAIRHFENKFAVETLICRWMWIWRVTNGF, for which the amyloid nucleation score entry was “inactive”.

Turning to EASNCFAIRHFENKFAVETLICRWNQRRW, the amyloid nucleation score turned out to be 0.848.

On to EASNCFAIRHFENKFAVETLICRWPDWPTETVVR, for which the amyloid nucleation score entry is “inactive”.

Turning to EASNCFAIRHFENKFAVETLICRWRAEYLFAFGG, the amyloid nucleation score was 0.582.

With EASNCFAIRHFENKFAVETLICRWSTSWRDDSYC, the amyloid nucleation score stood at 3.98.

Turning to EASNCFAIRHFENKFAVETLICRWTFAAHIKPFS, the amyloid nucleation score result was “inactive”.

As for EASNCFAIRHFENKFAVETLICRWVTHQAVLWLH, the amyloid nucleation score was determined as 0.474.

On to EASNCFAIRHFENKFAVETLICRWWIGME, for which the amyloid nucleation score result is “inactive”.

EASNCFAIRHFENKFAVETLICRWYDKSGISYSS: the amyloid nucleation score entry was “inactive”.

Take EASNCFAIRHFENKFAVETLICRWYF: the amyloid nucleation score result was “inactive”.

Regarding EASNCFAIRHFENKFAVETLICRWYLELHDYSNM, the amyloid nucleation score entry is “inactive”.

For the sequence EASNCFAIRHFENKFAVETLICRYA, the amyloid nucleation score result is “inactive”.

Consider EASNCFAIRHFENKFAVETLICRYANGSQTWQVQ, for which the amyloid nucleation score result is “inactive”.

As for EASNCFAIRHFENKFAVETLICRYAQVYMSWRRW, the amyloid nucleation score is -0.288.

Consider EASNCFAIRHFENKFAVETLICRYDCCRSLIRVR, for which the amyloid nucleation score entry was “inactive”.

With EASNCFAIRHFENKFAVETLICRYDCSKGSILGE, the amyloid nucleation score result is “inactive”.

Turning to EASNCFAIRHFENKFAVETLICRYGLDGFHNVQT, the amyloid nucleation score result is “inactive”.

Sequence EASNCFAIRHFENKFAVETLICRYGLWKHMEGFI displayed an amyloid nucleation score of 2.15.

Consider EASNCFAIRHFENKFAVETLICRYGRQLRSVAVC, for which the amyloid nucleation score result is “inactive”.

On to EASNCFAIRHFENKFAVETLICRYHRVGRVAVKR, for which the amyloid nucleation score entry is “inactive”.

On to EASNCFAIRHFENKFAVETLICRYIRA, for which the amyloid nucleation score stood at 3.43.

On to EASNCFAIRHFENKFAVETLICRYKDEEERDSGH, for which the amyloid nucleation score entry was “inactive”.

Turning to EASNCFAIRHFENKFAVETLICRYKFSTVTFVPC, the amyloid nucleation score entry was “inactive”.

With EASNCFAIRHFENKFAVETLICRYLSCSFHYPWA, the amyloid nucleation score result is “inactive”.

As for EASNCFAIRHFENKFAVETLICRYMARCNDFTR, the amyloid nucleation score was 2.28.

Regarding EASNCFAIRHFENKFAVETLICRYMSGLLSALMP, the amyloid nucleation score result is “inactive”.

EASNCFAIRHFENKFAVETLICRYPIPLTVWVWS: the amyloid nucleation score entry was “inactive”.

Sequence EASNCFAIRHFENKFAVETLICRYQM came in with an amyloid nucleation score of 2.81.

In the case of EASNCFAIRHFENKFAVETLICRYQSVSFFCVLD, the amyloid nucleation score result is “inactive”.

EASNCFAIRHFENKFAVETLICRYRAWSQVPSTC: the amyloid nucleation score result was “inactive”.

As for EASNCFAIRHFENKFAVETLICRYRITPFLTGPH, the amyloid nucleation score entry is “inactive”.

EASNCFAIRHFENKFAVETLICRYRSFCFWDAA: the amyloid nucleation score entry was “inactive”.

The sequence EASNCFAIRHFENKFAVETLICRYSVDVLGELCC showed an amyloid nucleation score of 1.74.

Turning to EASNCFAIRHFENKFAVETLICRYSVSLGSGGIG, the amyloid nucleation score entry was “inactive”.

On to EASNCFAIRHFENKFAVETLICRYTMFYFSRSFH, for which the amyloid nucleation score was -0.345.

As to EASNCFAIRHFENKFAVETLICRYVDITKFRHSV, the amyloid nucleation score entry is “inactive”.

For the sequence EASNCFAIRHFENKFAVETLICRYVGHTPTYFLE, the amyloid nucleation score entry was “inactive”.

In the case of EASNCFAIRHFENKFAVETLICTA, the amyloid nucleation score result is “inactive”.

For EASNCFAIRHFENKFAVETLICTAA, the amyloid nucleation score was determined as 0.275.

EASNCFAIRHFENKFAVETLICTAARSTVVSDRS registered an amyloid nucleation score of -0.111.

As to EASNCFAIRHFENKFAVETLICTACVVLGHQYVP, the amyloid nucleation score turned out to be 5.49.

On to EASNCFAIRHFENKFAVETLICTADV, for which the amyloid nucleation score result is “inactive”.

EASNCFAIRHFENKFAVETLICTAEWWARRASGA returned an amyloid nucleation score of 4.49.

The same series, now with this note: random library (experiment): 2.
With EASNCFAIRHFENKFAVETLICRWHG, the amyloid nucleation score entry was “inactive”.

In the case of EASNCFAIRHFENKFAVETLICRWKCFFLHDVDV, the amyloid nucleation score entry was “inactive”.

As to EASNCFAIRHFENKFAVETLICRWKLGSAMAFWR, the amyloid nucleation score was 0.261.

As for EASNCFAIRHFENKFAVETLICRWLGKSPRRELP, the amyloid nucleation score was found to be 0.664.

In turn, EASNCFAIRHFENKFAVETLICRWNVAVDVGCTR yielded an amyloid nucleation score of 0.378.

In turn, EASNCFAIRHFENKFAVETLICRWPLIGLVDLAC gave an amyloid nucleation score of 0.494.

EASNCFAIRHFENKFAVETLICRWS: the amyloid nucleation score entry is “inactive”.

Turning to EASNCFAIRHFENKFAVETLICRY, the amyloid nucleation score entry is “inactive”.

On to EASNCFAIRHFENKFAVETLICRYAYV, for which the amyloid nucleation score came out at 0.741.

EASNCFAIRHFENKFAVETLICRYCHMDILMVVG: the amyloid nucleation score result was “inactive”.

For EASNCFAIRHFENKFAVETLICRYDSM, the amyloid nucleation score result is “inactive”.

For the sequence EASNCFAIRHFENKFAVETLICRYF, the amyloid nucleation score was -0.239.

As to EASNCFAIRHFENKFAVETLICRYFNCNAGMLFV, the amyloid nucleation score result was “inactive”.

As for EASNCFAIRHFENKFAVETLICRYG, the amyloid nucleation score entry is “inactive”.

For EASNCFAIRHFENKFAVETLICRYGPQVFRLLVS, the amyloid nucleation score result is “inactive”.

For the sequence EASNCFAIRHFENKFAVETLICRYIKHHYAKIWL, the amyloid nucleation score result is “inactive”.

Regarding EASNCFAIRHFENKFAVETLICRYIKHQCSLGKC, the amyloid nucleation score entry is “inactive”.

With EASNCFAIRHFENKFAVETLICRYIQGHGWCYRQ, the amyloid nucleation score came to 1.62.

On to EASNCFAIRHFENKFAVETLICRYKNSAPVSTMI, for which the amyloid nucleation score result was “inactive”.

Take EASNCFAIRHFENKFAVETLICRYNCEQMWCLRM: the amyloid nucleation score result is “inactive”.

EASNCFAIRHFENKFAVETLICRYPGYVAIESLC: the amyloid nucleation score result is “inactive”.

As for EASNCFAIRHFENKFAVETLICRYRALAMGLVCC, the amyloid nucleation score result was “inactive”.

Regarding EASNCFAIRHFENKFAVETLICRYRKRWYYYYNV, the amyloid nucleation score entry is “inactive”.

For EASNCFAIRHFENKFAVETLICRYRMAENWTVLL, the amyloid nucleation score entry is “inactive”.

The sequence EASNCFAIRHFENKFAVETLICRYTSCQPTPLEF yielded an amyloid nucleation score of 0.598.

Turning to EASNCFAIRHFENKFAVETLICRYTWMV, the amyloid nucleation score result is “inactive”.

The series is the same for the next values; noted with them: random library (experiment): 3.
Regarding EASNCFAIRHFENKFAVETLICRWHVKRWLLRGG, the amyloid nucleation score entry was “inactive”.

As for EASNCFAIRHFENKFAVETLICRWNTGSVIFGAW, the amyloid nucleation score entry is “inactive”.

As for EASNCFAIRHFENKFAVETLICRWQAVCVGIMQP, the amyloid nucleation score result is “inactive”.

As to EASNCFAIRHFENKFAVETLICRWRLGTVRAVC, the amyloid nucleation score was 0.

EASNCFAIRHFENKFAVETLICRWSGDFGVLVLV: the amyloid nucleation score result is “inactive”.

As for EASNCFAIRHFENKFAVETLICRWTGHQMSREQD, the amyloid nucleation score came to 0.419.

With EASNCFAIRHFENKFAVETLICRWVSLAGQGLCR, the amyloid nucleation score entry was “inactive”.

Consider EASNCFAIRHFENKFAVETLICRWVWVGEWACSA, for which the amyloid nucleation score result is “inactive”.

EASNCFAIRHFENKFAVETLICRWWCTSDEWWSL: the amyloid nucleation score result is “inactive”.

With EASNCFAIRHFENKFAVETLICRWWLLWIRARSA, the amyloid nucleation score result was “inactive”.

As for EASNCFAIRHFENKFAVETLICRWWPVEPSGRST, the amyloid nucleation score entry is “inactive”.

Regarding EASNCFAIRHFENKFAVETLICRYAWPDCSRFIR, the amyloid nucleation score was 1.

As to EASNCFAIRHFENKFAVETLICRYC, the amyloid nucleation score entry was “inactive”.

EASNCFAIRHFENKFAVETLICRYCSGSPWSVLE: the amyloid nucleation score entry is “inactive”.

As to EASNCFAIRHFENKFAVETLICRYFMFCNMYAWG, the amyloid nucleation score result was “inactive”.

As for EASNCFAIRHFENKFAVETLICRYGENGGSPT, the amyloid nucleation score result is “inactive”.

For EASNCFAIRHFENKFAVETLICRYGFRHGDFFAL, the amyloid nucleation score result was “inactive”.

On to EASNCFAIRHFENKFAVETLICRYHMCYVTGSAL, for which the amyloid nucleation score entry is “inactive”.

With EASNCFAIRHFENKFAVETLICRYKCFLYYIQDG, the amyloid nucleation score entry was “inactive”.

For EASNCFAIRHFENKFAVETLICRYKGRSTELLML, the amyloid nucleation score entry was “inactive”.

As to EASNCFAIRHFENKFAVETLICRYLAGMCNRFLR, the amyloid nucleation score is -0.142.

Consider EASNCFAIRHFENKFAVETLICRYLGAS, for which the amyloid nucleation score result was “inactive”.

In the case of EASNCFAIRHFENKFAVETLICRYLSLLSTWF, the amyloid nucleation score entry was “inactive”.

For EASNCFAIRHFENKFAVETLICRYLTHDPVCRTR, the amyloid nucleation score result is “inactive”.

Regarding EASNCFAIRHFENKFAVETLICRYLYLFSYTCHD, the amyloid nucleation score result was “inactive”.

The sequence EASNCFAIRHFENKFAVETLICRYQGV showed an amyloid nucleation score of 1.41.

As for EASNCFAIRHFENKFAVETLICRYVLSCVNSVPS, the amyloid nucleation score entry is “inactive”.

For the sequence EASNCFAIRHFENKFAVETLICRYVNGVLVVVTC, the amyloid nucleation score entry was “inactive”.
